Source: PubChem BioAssay (NCATS)
Values joined by “and” are separate entries in the source; they are usually repeats but may differ in a detail not shown here. Identical values can stand only once. Inconclusive results, whose numbers are uncertain, are shown with a selection of clear calls. Where the call is inconclusive, the potency comes from a doubtful curve fit. Active and inactive are the calls of the source. The call rests on the fitted dose curve; in most records, active means well fitted inhibition curve with a large enough effect; inconclusive means small, poorly fitted or top-dose-only effect; inactive means no such curve, though single readings can be large or run the other way.

assay: Primary qHTS for small molecule stabilizers of the endoplasmic reticulum resident proteome: Secreted ER Calcium Modulated Protein (SERCaMP) assay (AID 1508630); conditions: SH-SY5Y GLuc-SERCaMP (Gaussia luciferase released on ER calcium loss) secretion, thapsigargin, luminescence; series mostly up to 38.4 µM
Summary of the method: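 GLuc-SERCaMP-expressing SH-SY5Y cells, pretreated 16 h with compound, are challenged with thapsigargin to empty ER calcium stores; after 4 h, coelenterazine is added directly to the medium and luminescence is imaged.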
Potency means the concentration at half of the fitted maximal effect; tags describe the fitted curve by direction and shape.

SMILES	Potency
CO[C@H]1O[C@@H]2O[C@@]3(C)CC[C@@H]4[C@@H](C)CC[C@@H]([C@H]1C)[C@@]24OO3	inconclusive: 33.5 µM [inhibitor, partial curve, poor fit]
CCCCc1oc2ccccc2c1C(=O)c1cc(I)c(OCCN(CC)CC)c(I)c1	inconclusive: 25.1 µM [inhibitor, single point]
CC(C)Cc1ccc(C(C)C(=O)O)cc1 (centres undefined)	inconclusive: 35.5 µM [inhibitor, full curve] and inconclusive: 5.62 µM [inhibitor, partial curve, poor fit]
CNC(=O)Oc1ccc2c(c1)[C@]1(C)CCN(C)[C@@H]1N2C	inconclusive: 10 µM [inhibitor, partial curve, poor fit]
CC(=O)Nc1ccc([C@H](C)C(=O)Nc2ncc(C(C)C)s2)cc1	inactive
O=c1c(-c2ccc(O)cc2)coc2cc(O[C@@H]3O[C@H](CO)[C@H](O)[C@H](O)[C@H]3O)ccc12	inactive
CN[C@H](CC(=O)O)C(=O)O	inconclusive: 7.94 µM [inhibitor, partial curve, poor fit] and inconclusive: 10 µM [inhibitor, partial curve, poor fit]
Nc1ncnc2c1ncn2[C@@H]1O[C@@H](CO)[C@H](O)[C@H]1O	inconclusive: 0.473 µM [inhibitor, full curve, poor fit]
Nc1c(CC(=O)O)cccc1C(=O)c1ccc(Br)cc1	inconclusive: 25.1 µM [inhibitor, partial curve, poor fit]
O=C(O)CN(CCOCCOCCN(CC(=O)O)CC(=O)O)CC(=O)O	inconclusive: 0.0562 µM [inhibitor, partial curve, poor fit]
NC(=O)c1cccc2[nH]c(-c3ccc([C@H]4CCCN4)cc3F)nc12	inconclusive: 1.88 µM [inhibitor, partial curve]
Cc1ccc(F)c(NC(=O)Nc2ccc(-c3cccc4[nH]nc(N)c34)cc2)c1	inconclusive: 0.0749 µM [inhibitor, full curve]
OC[C@H]1O[C@H](O[C@]2(CCl)O[C@H](CCl)[C@@H](O)[C@@H]2O)[C@H](O)[C@@H](O)[C@H]1Cl	inconclusive: 5.01 µM [inhibitor, full curve, poor fit]
C=CCCCCCCCCC(=O)O	inconclusive: 28.2 µM [inhibitor, partial curve, poor fit]
COc1ccc(-c2coc3cc(O)ccc3c2=O)cc1	inactive
OC[C@H]1O[C@H](n2cnc3c(N[C@H]4CCC[C@@H]4O)ncnc32)[C@H](O)[C@@H]1O	inconclusive: 2.24 µM [inhibitor, full curve, poor fit]
CN(C)c1ccc2cc(C(=O)N[C@@H](CCCN=C(N)CCl)C(=O)NCc3ccccc3)ccc2c1	inconclusive: 0.0149 µM [inhibitor, full curve, poor fit]
O=C(O)C=Cc1ccc(O)c(O)c1	inconclusive: 2.82 µM [inhibitor, full curve]
O=C(c1ccc(OCCCc2cnc[nH]2)cc1)C1CC1	inconclusive: 8.91 µM [inhibitor, partial curve, poor fit]
COc1ccc([C@@H]2CC(=O)c3c(O)cc(O[C@@H]4O[C@H](CO[C@@H]5O[C@@H](C)[C@H](O)[C@@H](O)[C@@H]5O)[C@@H](O)[C@H](O)[C@@H]4O)cc3O2)cc1O	inconclusive: 0.0012 µM [inhibitor, full curve, poor fit]

SMILES	Potency
N#CC(=C(N)Sc1ccccc1N)C(C#N)=C(N)Sc1ccccc1N	inactive
CC[C@@H](C)[C@H](NC(=O)[C@H](CC1CCCCC1)NC(=O)c1ccno1)C(=O)N1CCC2(CCc3ccccc32)CC1	inactive
O=C(NCc1ccccc1)c1csc(Nc2ccncn2)n1	inconclusive: 3.35 µM [inhibitor, partial curve]
CC1(C)S[C@@H]2[C@H](NC(=O)Cc3ccccc3)C(=O)N2[C@H]1C(=O)O (tested in a mixture with another compound)	inconclusive: 31.6 µM [inhibitor, partial curve, poor fit]
CNC(=O)c1ccc(C)c(-n2c(C)cc(OCc3ccc(F)cc3F)c(Br)c2=O)c1	inconclusive: 29.8 µM [inhibitor, single point]
CCCNS(=O)(=O)Nc1ncnc(OCCOc2ncc(Br)cn2)c1-c1ccc(Br)cc1	inactive
CC(COc1ccccc1)NN (centres undefined)	inconclusive: 31.6 µM [inhibitor, partial curve]
CCNC(=O)CCCC=CC[C@@H]1[C@H](C=CC(O)CCc2ccccc2)[C@@H](O)C[C@@H]1O (some centres undefined)	inconclusive: 23.7 µM [inhibitor, single point]
Oc1ccc(C2CCN(c3ccnc4ccccc34)CC2)cc1O	inconclusive: 10.6 µM [inhibitor, partial curve, poor fit]
CN(C)c1ccc(Nc2nc(N)n(C(=O)c3c(F)cccc3F)n2)cc1	inconclusive: 0.003 µM [inhibitor, full curve, poor fit]
COc1ccc(C2Sc3ccccc3N(CCN(C)C)C(=O)C2OC(C)=O)cc1 (centres undefined)	inconclusive: 28.2 µM [inhibitor, single point] and inconclusive: 23.7 µM [inhibitor, partial curve, poor fit]
CCOc1ccc2nc(S(N)(=O)=O)sc2c1	inactive
Cc1cnc(Nc2ccc(OCCN3CCCC3)cc2)nc1Nc1cccc(S(=O)(=O)NC(C)(C)C)c1	inactive
Oc1cc(O)cc(C=Cc2ccc(O)c(O)c2)c1	inactive
O=c1cc(-c2ccccc2)oc2cc(O)cc(O)c12	inconclusive: 31.6 µM [inhibitor, single point]
N=C(N)SCCc1cnc[nH]1	inconclusive: 31.6 µM [inhibitor, partial curve, poor fit] and inactive
NCCSSCCN	inactive
Cc1ccc(C(=O)Nc2cccc(C(F)(F)F)c2)cc1Nc1nc(-c2cccnc2)nc2c1cnn2C	inactive
C[C@@H]1CCN(C(=O)CC#N)C[C@H]1N(C)c1ncnc2[nH]ccc12	inconclusive: 0.0094 µM [inhibitor, full curve]
